In patent US20190352358A1, “COMPOUNDS, COMPOSITIONS AND USES THEREOF FOR IMPROVEMENT OF BONE DISORDERS” (ALIZE PHARMA III SAS, priority 2017, published 2019):
At least one peptide structure holds a part that was inferred or is arguable (an end, a ring closure or a residue). Some compounds share one wording; it may come from a single statement. No end group written: not given here.

Columns and labels:
Type in all cases: cell-based
[1] = tested on: MC-3T3 E1 clone 4 (CL4) osteoblast cells; experiment: Osteocalcin expression during in vitro osteoblast differentiation, alanine-substituted analogs (Example 3); details: Table 11; test peptide 1 μg/mL; 15 day interval
[2] = tested on: MC-3T3 E1 clone 4 (CL4) osteoblast cells; experiment: Osteocalcin expression during in vitro osteoblast differentiation, HBD1 fragments (Example 1); details: for Fold increase vs DM ± SE: Table 9, test peptide 1 μmon, 14-15 day interval; for Fold increase vs DM ± SE / Fold increase vs DM ± SD: osteocalcin; for biological activity in osteoblast differentiation bioassay (in words): Tables 8 and 9; for Fold increase vs DM ± SD: Table 8, test peptide 1 μg/mL, 18-21 day interval
[3] = tested on: MC-3T3 E1 clone 4 (CL4) osteoblast cells; experiment: Osteocalcin expression during in vitro osteoblast differentiation, amino-acid substituted analogs (Example 5); details: test peptide 1 μmon; for Fold increase SEQ ID NO: 10 ± SE: Table 12; for Fold increase vs DM ± SE: Table 13
[4] = tested on: MC-3T3 E1 clone 4 (CL4) osteoblast cells; experiment: Osteocalcin expression during in vitro osteoblast differentiation, various doses of analogs (Example 8); details: 18 day interval
Procedure: The peptides were tested at different concentrations in a biologic assay measuring their ability to stimulate differentiation of osteoblast cells over a 18 day interval as assessed by the stimulation of osteocalcin protein synthesis. MC-3T3 E1 clone 4 (CL4) osteoblast cells were obtained from ATCC (Manassas, Va., USA). Cells were cultured in α-MEM containing 10% fetal bovine serum (FBS; Thermo Fisher Scientific, Pittsburgh, Pa., USA). After confluency, culture medium was changed to differentiation medium (DM), which contained 10% FBS plus 50 μg/mL ascorbic acid and 4 mM β-glycerol phosphate, with or without an ascending dose of the peptide. Fresh DM, with or without the peptide, was applied every 72 hours. The cell monolayers were lysed in a modified radioimmunoprecipitation assay (RIPA) buffer. Total cellular protein in the lysates was determined using BCA (Thermo Fisher Scientific, Rockford, Ill., USA). Cell proteins are separated on SDS-PAGE gel and transferred on PVDF membrane for analysis. Osteocalcin detection was performed using anti-osteocalcin antibody at 1:200 dilution (Santa Cruz Biotechnology, Inc, Santa Cruz, Calif., USA) and visualized using enhanced chemiluminescence (Thermo Fisher Scientific, Rockford, Ill., USA).

[5] = tested on: MC-3T3 E1 clone 4 (CL4) osteoblast cells; experiment: Osteocalcin expression during in vitro osteoblast differentiation, various doses of HBD1 (3-11) (Example 2); details: for Fold increase vs DM ± SD: 18 day interval

Which “Fold increase vs SEQ ID NO: 10 ± SE” value [1] does the source give for ALGLEEPKK [compound 17] here?
Its value is 0.64 ± 0.08 fold.

For GLEEPK [HBD1 (5-10), GLEEPK], which “Fold increase vs DM ± SE” value [2] is on record?
The value was 1.83 ± 0.53 fold.

And the “biological activity in osteoblast differentiation bioassay (in words)” value [2]?
Its value is “shortest active fragment”.

For GLEEPKK [HBD1 (5-11), GLEEPKK], which “Fold increase vs DM ± SE” value [2] is on record?
The value was 2.03 ± 0.68 fold.

With HAGLEEPKK [compound 18] as the substance, how does the “Fold increase vs SEQ ID NO: 10 ± SE” value [1] read?
Its value is 0.41 ± 0.05 fold.

How did the “Fold increase vs DM ± SE” value [2] turn out when HHLGLEEPKK [SEQ ID NO: 16, HHLGLEEPKK] was run?
The value was 3.28 ± 0.36 fold.

How did the “Fold increase vs DM ± SD” value [2] turn out when “HHLGLEEPKKLR [HBD1 (2-13), HHLGLEEPKKLR]” was run?
Its value is 3.45 ± 0.46 fold.

For HLALEEPKK [compound 19], which “Fold increase vs SEQ ID NO: 10 ± SE” value [1] is on record?
The value was 0.29 ± 0.04 fold.

HLGAEEPKK [compound 20] was tested. Which “Fold increase vs SEQ ID NO: 10 ± SE” value [1] did it give?
The value was 0.38 ± 0.05 fold.

For HLGIEEPKK [compound 92], which “Fold increase vs DM ± SD” value ([3]; Table 15, 12 day interval) is on record?
Its value is 2.70 ± 1.43 fold.

HLGLAEPKK [compound 21] was tested. Which “Fold increase vs SEQ ID NO: 10 ± SE” value [1] did it give?
The value was 0.20 ± 0.03 fold.

HLGLEAPKK [compound 22] was tested. Which “Fold increase vs SEQ ID NO: 10 ± SE” value [1] did it give?
Its value is 1.00 ± 0.10 fold.

How did the “Fold increase vs SEQ ID NO: 10 ± SE” value [1] turn out when HLGLEEAKK [compound 23] was run?
The value was 1.12 ± 0.11 fold.

Which “Fold increase SEQ ID NO: 10 ± SE” value ([3]; 12 day interval) does the source give for HLGLEEDKK [compound 35] here?
Its value is 1.26 fold.

For HLGLEEFKK [compound 32], which “Fold increase SEQ ID NO: 10 ± SE” value ([3]; 12 day interval) is on record?
Its value is 0.58 fold.

HLGLEELKK [compound 33] was tested. Which “Fold increase SEQ ID NO: 10 ± SE” value ([3]; 12 day interval) did it give?
The value was 1.66 fold.

For HLGLEEP [HBD1 (3-9), HLGLEEP], which “Fold increase vs DM ± SD” value [2] is on record?
The value was 2.01 ± 0.30 fold.

With HLGLEEPAK [compound 24] as the substance, how does the “Fold increase vs SEQ ID NO: 10 ± SE” value [1] read?
The value was 1.25 ± 0.13 fold.

For HLGLEEPDK [compound 39], which “Fold increase SEQ ID NO: 10 ± SE” value ([3]; 12 day interval) is on record?
The value was 1.31 ± 0.08 fold.

How did the “Fold increase vs DM ± SE” value ([3]; 15 day interval) turn out when HLGLEEPEK [compound 49] was run?
Its value is 1.72 ± 0.37 fold.

For HLGLEEPFK [compound 36], which “Fold increase SEQ ID NO: 10 ± SE” value ([3]; 12 day interval) is on record?
Its value is 1.23 ± 0.13 fold.

Which results are given for HLGLEEPFN [compound 108]?
Fold increase vs DM ± SD ([3]; Table 14, 15 day interval): 7.14 ± 2.20 fold; Fold increase vs DM ± SD ([4]; Table 20, dose 0.25 μM): 3.7 ± 0.47 fold; Fold increase vs DM ± SD ([4]; Table 20, dose 0.5 μM): 4.80 ± 1.12 fold; Fold increase vs DM ± SD ([4]; Table 20, dose 1.0 μM): 6.20 ± 1.64 fold

For HLGLEEPFV [compound 106], which “Fold increase vs DM ± SD” value ([3]; Table 14, 15 day interval) is on record?
The value was 6.98 ± 1.3 fold.

How did the “Fold increase vs DM ± SD” value ([3]; Table 16, 12 day interval) turn out when HLGLEEPH [compound 113] was run?
The value was 8.90 ± 1.31 fold.

What about the “Fold increase vs DM ± SD” value ([4]; Table 21, dose 0.25 μM) of the same substance?
Its value is 2.99 ± 0.53 fold.

What about the “Fold increase vs DM ± SD” value ([4]; Table 21, dose 0.5 μM) of the same substance?
The value was 3.83 ± 1.64 fold.

What about the “Fold increase vs DM ± SD” value ([4]; Table 21, dose 1.0 μM) of the same substance?
Its value is 4.67 ± 0.46 fold.

For HLGLEEPIK [compound 45], which “Fold increase vs DM ± SE” value ([3]; 15 day interval) is on record?
The value was 2.27 ± 0.05 fold.

How did the “Fold increase vs DM ± SD” value [2] turn out when HLGLEEPK [HBD1 (3-10), HLGLEEPK] was run?
Its value is 4.09 ± 0.87 fold.

Which “Fold increase vs SEQ ID NO: 10 ± SE” value [1] does the source give for HLGLEEPKA [compound 25] here?
The value was 0.87 ± 0.09 fold.

How did the “Fold increase SEQ ID NO: 10 ± SE” value ([3]; 12 day interval) turn out when HLGLEEPKD [compound 44] was run?
Its value is 2.60 ± 0.18 fold.

How did the “Fold increase vs DM ± SE” value ([3]; 15 day interval) turn out when HLGLEEPKE [compound 60] was run?
The value was 3.04 ± 0.62 fold.

With HLGLEEPKF [compound 40] as the substance, how does the “Fold increase SEQ ID NO: 10 ± SE” value ([3]; 12 day interval) read?
The value was 2.33 ± 0.03 fold.

For HLGLEEPKH [compound 50], which “Fold increase vs DM ± SE” value ([3]; 15 day interval) is on record?
The value was 2.56 ± 1.09 fold.

HLGLEEPKI [compound 41] was tested. Which “Fold increase SEQ ID NO: 10 ± SE” value ([3]; 12 day interval) did it give?
The value was 2.60 ± 0.56 fold.

How did the “osteoblast differentiation, dose dependence (in words)” value ([5]; 0.1 μg/mL to 4 μg/mL) turn out when HLGLEEPKK [SEQ ID NO: 10, HLGLEEPKK] was run?
Its value is “improved osteoblast differentiation in a dose-dependent fashion”.

And the “Fold increase vs DM ± SD” value ([5]; dose 0.25 μg/mL)?
The value was 1.81 ± 0.15 fold.

What about the “Fold increase vs DM ± SD” value ([5]; dose 0.5 μg/mL) of the same substance?
The value was 2.5 ± 0.39 fold.

And the “Fold increase vs DM ± SD” value ([5]; dose 1.0 μg/mL)?
Its value is 3.28 ± 0.72 fold.

What about the “Fold increase vs DM ± SD” value ([5]; dose 2.0 μg/mL) of the same substance?
Its value is 3.67 ± 0.83 fold.

What about the “Fold increase vs DM ± SD” value ([5]; dose 3.0 μg/mL) of the same substance?
Its value is 3.91 ± 0.87 fold.

What about the “Fold increase vs DM ± SD” value ([5]; dose 4.0 μg/mL) of the same substance?
The value was 4.59 ± 1.19 fold.

What about the “Fold increase vs DM ± SE” value [2] of the same substance?
The value was 2.51 ± 0.42 fold.

And the “biological activity in osteoblast differentiation bioassay (in words)” value [2]?
Its value is “biologically active”.

HLGLEEPKKL [HBD1 (3-12), HLGLEEPKKL] was tested. Which “Fold increase vs DM ± SD” value [2] did it give?
Its value is 4.25 ± 0.60 fold.

What does the source list for HLGLEEPKKLR [HBD1 (3-13), HLGLEEPKKLR]?
Fold increase vs DM ± SD [2]: 3.04 ± 0.66 fold; biological activity in osteoblast differentiation bioassay (in words) [2]: some preserved biological activity

Which “Fold increase vs DM ± SE” value ([3]; 15 day interval) does the source give for HLGLEEPKL [compound 52] here?
The value was 3.38 ± 0.19 fold.

For HLGLEEPKM [compound 53], which “Fold increase vs DM ± SE” value ([3]; 15 day interval) is on record?
The value was 4.03 ± 0.25 fold.

HLGLEEPKN [compound 57] was tested. Which “Fold increase vs DM ± SE” value ([3]; 15 day interval) did it give?
Its value is 3.58 ± 1.01 fold.

How did the “Fold increase SEQ ID NO: 10 ± SE” value ([3]; 12 day interval) turn out when HLGLEEPKP [compound 42] was run?
The value was 2.67 ± 0.39 fold.

How did the “Fold increase vs DM ± SE” value ([3]; 15 day interval) turn out when HLGLEEPKQ [compound 56] was run?
The value was 5.16 ± 0.34 fold.

HLGLEEPKR [compound 51] was tested. Which “Fold increase vs DM ± SE” value ([3]; 15 day interval) did it give?
The value was 2.45 ± 0.51 fold.

HLGLEEPKS [compound 43] was tested. Which “Fold increase SEQ ID NO: 10 ± SE” value ([3]; 12 day interval) did it give?
The value was 2.83 ± 0.09 fold.

HLGLEEPKT [compound 59] was tested. Which “Fold increase vs DM ± SE” value ([3]; 15 day interval) did it give?
Its value is 2.38 ± 0.41 fold.
